Data: the supplement of paper PMC10986608
The other results are listed elsewhere or left out. Repeats are few or missing, and single values can be far off.

Test system: Candida albicans DPL-15
Test: growth (OD600) after compound treatment (apparently relative to screen median) (relative growth (fraction; screen median 1.02)); DPL-15 is a caspofungin-resistant clinical isolate; higher = more fungal growth (less antifungal activity)
Conditions: 25 µM; RPMI 1640; 48 h; 30 °C

Compound	growth
O=C1O/C(=C2/OC(=O)c3ccccc32)c2ccccc21	1.26
C[C@@]1(O)C(=O)[C@@]2(C)C=C[C@@H]1[C@@H]1CCO[C@@H]12	0.906
CC1=CC[C@@H](C)O[C@@]2(C1)C(=O)Nc1cccc(Br)c12	0.843
CC(C)CCCN(C(=O)OC(C)(C)C)S(=O)(=O)NC(C)(C)C	1.04
COc1ccc(-c2cnn3c(N)c(-c4ccc(F)cc4)cnc23)cn1	1.06
CC(=O)OC[C@H]1O[C@H](C#Cc2cccc(C(F)(F)F)c2)C=C[C@@H]1OC(C)=O	1.04
c1ccc(CCCc2ccccn2)cc1	1.07
COc1ccc(CCN2C(=O)[C@H]3[C@H]4c5ccccc5[C@@]([C@H](OCc5ccccc5)C(F)(F)F)(c5ccccc54)[C@H]3C2=O)cc1OC	0.907
COc1ccc(N2C(=O)C3=C(C(C)=NCCN3C)C2c2ccc3c(c2)OCO3)cc1 (centres undefined)	0.977
CCCN1C(NCCc2cccs2)=NC(c2ccc(F)cc2)C(C(=O)OC)=C1C (centres undefined)	0.995
CC(=O)C1=C(C)NC(=S)NC1c1ccccc1 (centres undefined)	1.03
O=C(/C=C(\O)CCc1ccccc1)CCc1ccccc1	0.993
Cc1ccc(S(=O)(=O)Oc2c(CC34COCCC3=Nc3ccccc34)occc2=O)cc1 (centres undefined)	1.16
COCCN1C(=O)[C@H]2C[C@@]13O[C@H](c1ccc(C(F)(F)F)cc1)N=C3C[C@H](c1ccccc1)[C@H]2C	1.01
CC(C)(C)CNS(=O)(=O)NC(C)(C)C	1.2
C#CCC(C)(C)CNC(=O)CC1(CNC(=O)c2cc(/C=N/NS(=O)(=O)c3ccc(C)cc3)ccc2O)CCCCC1	1.06
COc1ccc(N2C(=O)C3=C(C(CC(C)C)=NCCN3C)C2c2ccc3c(c2)OCO3)cc1 (centres undefined)	1.01
CC(=O)OCC(C)(CO)CN1C(=O)c2[nH]nc(CC(C)C)c2C1c1ccc(F)cc1 (centres undefined)	0.954
CN(C)CCn1cc(Nc2cc(O)cc(O)c2C(=O)N2CCC(F)(F)C2)cn1	1.09
COC(=O)C(C(C)=O)C1c2ccccc2C=C(C)N1C(=O)OC (centres undefined)	0.989
CC(=O)c1nncc2c1c1ccccc1n2C	1.05
COc1ccc(N2C(=O)C3=C(C(CC(C)C)=NCCN3C)C2c2cccc(C(F)(F)F)c2)cc1 (centres undefined)	1.02
CCOC(=O)c1nnc(-c2ccccc2)c(-c2ccccc2)n1	1.01
CCCCNCC[C@@]12[C@H](NC(=O)OC)[C@@H](C)[C@H](OC)[C@@]13C=CC=C[C@H]32	1.04
CC(=O)OC[C@H]1O[C@H](c2ccc(Br)cc2)C=C[C@H]1OC(C)=O	1.07
CCc1ccccc1-n1nc2c(c1C(C)C)C(c1ccc(Br)cc1)NC2=O (centres undefined)	0.851
Cc1n[nH]c2c1C(c1ccc3c(c1)OCO3)N(Cc1ccccc1)C2=O (centres undefined)	0.947

Compound	growth
COC(=O)C1=C(C)N(Cc2ccccc2)C(NCCc2c[nH]c3ccccc23)=N[C@H]1c1cccc(F)c1	0.983
COCOc1cc(OC)c(OC)c2cc3oc(C)cc(=O)c3c(OC)c12	0.998
COC(=O)Cc1nnn2c1[C@@H](C)[C@@H](c1ccccc1Br)OC[C@H](C)C2	0.785
C#CCOC[C@@H](NC(=O)[C@@H]1C[C@@H](O)CN1)c1ccccc1	1.17
COc1ccc(C2NC(=O)N3CCC=CC3=C2C(C)=O)cc1Br (centres undefined)	1.04
COc1ccc([C@@]23Oc4cc(OC)cc(OC)c4O[C@@]2(c2cccn2C)c2nc4n(c(=O)c2[C@H]3c2ccccc2)CCC4)cc1	0.747
COc1ccc(C2CC(c3ccccc3)=CC2=O)cc1 (centres undefined)	1.07
CC(C)CCCC(C)NS(=O)(=O)NC(C)(C)C (centres undefined)	1.17
COc1ccc(N2C(=O)C3=C(C(CC(C)C)=NCCN3)C2c2ccc3c(c2)OCO3)cc1 (centres undefined)	0.878
COC(=O)[C@@H]1[C@@H](c2ccccc2)[C@]2(c3ccc(OC)cc3)Oc3cc(OC)cc(OC)c3[C@@]23NC(C(C)C)=N[C@@]13O	0.998
CS(=O)(=O)Oc1c(CC23CCCCC2=Nc2ccc(C(F)(F)F)cc23)occc1=O (centres undefined)	1.22
COCCN1Cc2cc(C(=O)OC)c3c(c2C1=O)c1cc(OC)ccc1n3S(=O)(=O)c1ccc(F)cc1	0.986
C=CC[C@H]1CC2=C(OC)C(CC=C)(CC=C)C(=O)C(C(=O)c3ccccc3)=C2OC1(C)C	0.919
C#CCOCCOCCNC(=O)CCCn1c(-c2ccccc2)nc2c(c1=O)[C@@H](c1ccccc1)[C@]1(c3ccc(OC)cc3)Oc3cc(OC)cc(OC)c3[C@]21O	1.02
CC(=O)N[C@@H]1CCN(C(=O)c2c(O)cc(O)cc2Nc2cnn(C)c2)C1	1.13
CC(=O)C1=C2C=CCCN2C(=O)NC1c1ccc2c(c1)OCCO2 (centres undefined)	1.04
C=CCN1C(=O)C2=C(C(c3ccccc3)=NCCN2C)C1c1ccc(F)cc1 (centres undefined)	0.952
C=CCOC(=O)NC(c1ccc(F)c(F)c1)S(=O)(=O)c1ccc(Cl)cc1 (centres undefined)	1.15
CCN1C(=O)[C@H]2C[C@@]13O[C@H](C1CCNCC1)N=C3C[C@H](c1ccccc1)[C@H]2C	1.05
COC(=O)N1C(C2CC2)=Cc2ccccc2C1CC(C)=O (centres undefined)	1.17
C[C@@H](NS(=O)(=O)OCCCc1ccccc1)c1ccccc1	0.81
CCC1=Nc2ccccc2C1(C)Cc1occc(=O)c1O (centres undefined)	1.06
COC(=O)C1C(=O)C(C)(Cl)C(=O)C(C)=C1C (centres undefined)	1.02
C#CCC(C)(C)CNC(=O)C(O)CNC(=O)c1cccc(/C=N/NS(=O)(=O)c2ccc(C)cc2)c1 (centres undefined)	1.03
COC(=O)C1=C(C)[C@@]2(C)C[C@H]3C(C)(C)CCC[C@]3(C)[C@@](C)(C1=O)C2=O	1.08
Cc1nn(C)c2c1C(c1ccccc1)NC2=O (centres undefined)	0.997
COC(=O)[C@@]1(/C=C2/c3ccc(F)cc3[C@@H](OC)[C@@H]2C)[C@@H]2CC=C[C@@H]21	1.02
